The values that follow come from the supplement of paper PMC10126150.

The subject of the series is ATP. The experiment in a line: switch fluorescence ratio, 500 uM ATP over buffer (Cy3 cluster intensity, sum of 5 cycles each) (fold (ratio)); higher = stronger signal-on switching upon ATP binding; sequences stand for … in TCGTCGGCAGCGTCAGATGTGTATAAGAGACAGTTTTTTTTTTTTTTTTTTTTTTTTT…TC. As to conditions: aptamer strand: ATP DNA aptamer (quencher-CACCTGGGGGAGTATTGCGGAGGAAGG + anchor), 100 nM annealed; ATP concentration: 500 uM; one replicate. In outline: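 Between each of five buffer/ATP cycles, the flow-cell was stripped with NaOH and re-annealed. Each cycle imaged Cy3-labelled switching-strand clusters, annealed to 100 nM quencher-labelled ATP aptamer on a modified Illumina MiSeq flow-cell, first in selection buffer and then after 15 min with 500 uM ATP at 22 °C. The fluorescence ratio is summed target-cycle over summed buffer-cycle Cy3 intensity per cluster, averaged per switch-domain sequence, with clusters outside 100-1000 RFU excluded.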

Values marked as one replicate rest on one cluster of the flow cell; about a third of the high ones do not repeat.
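Note: ATP exposure 15 min at 22 °C before imaging.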

As to TACGTACGCA, the switch fluorescence ratio worked out at 1.69.

TGAAAAATGC: the switch fluorescence ratio stood at 1.35.

Regarding GATCCGTGGT, the switch fluorescence ratio came out at 1.01.

Consider CTATCGGGTT, for which the switch fluorescence ratio amounted to 1.02.

As for ACTCAGCTC, the switch fluorescence ratio came to 1.64.

Take ATCGACGTGC: the switch fluorescence ratio came out at 1.08.

Regarding ATCAAGTTGC, the switch fluorescence ratio turned out to be 0.984.

AGTTCGAAGC: the switch fluorescence ratio was determined as 1.31.

As for GCATGTGGGG, the switch fluorescence ratio stood at 0.99.

For the sequence TTGAACGATA, the switch fluorescence ratio was 1.28.

On to TGGGTATGAG, for which the switch fluorescence ratio worked out at 0.943.

As to TAACACCTGG, the switch fluorescence ratio came out at 1.07.

In the case of AAATCGTGAC, the switch fluorescence ratio is 1.13.

Take CTCTGCCGGG: the switch fluorescence ratio stood at 1.17.

With ATTCAGAGAC, the switch fluorescence ratio turned out to be 1.02.

Take GATTGTCGGA: the switch fluorescence ratio stood at 0.995.

Turning to CCGTAAAGCA, the switch fluorescence ratio amounted to 1.78.

As for CCCGCAGCGG, the switch fluorescence ratio amounted to 1.14.

Consider GCCTACGAAG, for which the switch fluorescence ratio worked out at 1.05.

As to ACTTCGCGAA, the switch fluorescence ratio came to 2.17.

On to TTCCCGGTCA, for which the switch fluorescence ratio was found to be 1.05.

Consider AAGGGCAAGT, for which the switch fluorescence ratio turned out to be 1.04.

Turning to AATCATTTA, the switch fluorescence ratio was 0.997.

As for CAGGATTTGC, the switch fluorescence ratio was determined as 1.02.

Turning to TGAGGCACAT, the switch fluorescence ratio was determined as 1.19.

Regarding ACCCGGCCTG, the switch fluorescence ratio is 1.01.

TACATGGAGG: the switch fluorescence ratio was 0.981.

Take TGGGACGTTC: the switch fluorescence ratio was determined as 1.1.

On to CGTAAAGTGG, for which the switch fluorescence ratio is 1.01.

Consider TATAGTCCCG, for which the switch fluorescence ratio worked out at 1.02.

As for GTTTAAACCC, the switch fluorescence ratio came out at 1.04.

As for GCTTAATCTC, the switch fluorescence ratio worked out at 1.06.

As for CTTCCCGGTG, the switch fluorescence ratio came out at 5.44.

As for GGAAAAATTA, the switch fluorescence ratio was 0.98.

CAACTTCATT: the switch fluorescence ratio was 0.962.

As for TAAGACCGTT, the switch fluorescence ratio came to 1.01.

In the case of AGGAATCGTA, the switch fluorescence ratio came out at 1.02.

In the case of CAGGCGTTGA, the switch fluorescence ratio worked out at 1.04.

With TGGTAATCGG, the switch fluorescence ratio stood at 0.952.

Take ATGAGCGAGT: the switch fluorescence ratio stood at 0.956.

With AATACACGGA, the switch fluorescence ratio came to 1.04.

With TCGCGTCTCT, the switch fluorescence ratio came out at 1.07.

For the sequence TTTTGTTATC, the switch fluorescence ratio was found to be 0.997.

Consider AGCCGGGAGG, for which the switch fluorescence ratio was determined as 0.982.

Take CACATGGCCT: the switch fluorescence ratio worked out at 1.05.

As for AATCTACTCG, the switch fluorescence ratio came to 0.986.

For the sequence TGTTCGACGA, the switch fluorescence ratio stood at 1.14.

With CGAGCCATTA, the switch fluorescence ratio is 1.

In the case of GCGGATAAAG, the switch fluorescence ratio is 0.997.

As for CCGGGCAGTA, the switch fluorescence ratio turned out to be 1.96.

Turning to TTGATATACA, the switch fluorescence ratio came to 1.02.

On to TGAGCTGGGA, for which the switch fluorescence ratio was found to be 0.981.

GTAGCCCCTG: the switch fluorescence ratio was 0.979.

Turning to CACTTACAGC, the switch fluorescence ratio is 1.21.

On to ACTCGGCGG, for which the switch fluorescence ratio stood at 1.02.

GCCTGCCGTC: the switch fluorescence ratio was 1.04.

Regarding AGTGTTGCGT, the switch fluorescence ratio worked out at 0.943.

For the sequence GAGCAATACG, the switch fluorescence ratio was found to be 1.85.

For the sequence TTCATTACTT, the switch fluorescence ratio was 1.02.

As to TCTTATGTTG, the switch fluorescence ratio worked out at 0.987.

On to GTTGACACCC, for which the switch fluorescence ratio came to 1.16.

As to TTCAAGCAGC, the switch fluorescence ratio turned out to be 3.56.

Take ACTGCTTGCA: the switch fluorescence ratio worked out at 0.988.

On to TGTGCGTTCA, for which the switch fluorescence ratio is 0.976.

Turning to ATCTTTACTT, the switch fluorescence ratio worked out at 0.961.

For the sequence AGAAGCTCCC, the switch fluorescence ratio is 1.14.

Turning to CCCTATAGCA, the switch fluorescence ratio turned out to be 1.23.

Regarding AATCCTAGAA, the switch fluorescence ratio is 0.985.

For the sequence CCACGGGGGA, the switch fluorescence ratio turned out to be 1.08.

As to TACGATGTA, the switch fluorescence ratio amounted to 1.02.

As to TACATGGCAT, the switch fluorescence ratio worked out at 0.975.

CGAAAGCCTG: the switch fluorescence ratio turned out to be 1.

With CGCCTCAACG, the switch fluorescence ratio was 1.05.

Regarding TCCAGAACTT, the switch fluorescence ratio was 1.03.

Turning to CAAGTTTACA, the switch fluorescence ratio amounted to 1.04.

With GAGGATTGCG, the switch fluorescence ratio was determined as 0.954.

Take TTTACGGCGA: the switch fluorescence ratio was found to be 1.6.

For the sequence TCAATTAGCT, the switch fluorescence ratio came out at 1.

With TCATGGATCG, the switch fluorescence ratio amounted to 0.973.

As for CCGACTTGTA, the switch fluorescence ratio amounted to 1.32.

ACTTTTTAGC: the switch fluorescence ratio is 0.934.

Turning to TCGGTGAGG, the switch fluorescence ratio turned out to be 1.02.

On to AGAGTCGGGG, for which the switch fluorescence ratio was 0.986.

As to ATAGGACTTC, the switch fluorescence ratio came to 1.

On to GGCGTAGAC, for which the switch fluorescence ratio turned out to be 1.01.

On to ATTTCGAAGA, for which the switch fluorescence ratio is 0.952.

GTCGATGAGA: the switch fluorescence ratio amounted to 1.04.

In the case of CTATTTCCCA, the switch fluorescence ratio was determined as 0.992.

Regarding TATAGCGGCA, the switch fluorescence ratio came out at 1.03.

As for GGAAGCACTG, the switch fluorescence ratio came out at 1.04.

Consider TGATTATTG, for which the switch fluorescence ratio came to 0.988.

In the case of TTGAATGAAA, the switch fluorescence ratio was 1.01.

On to TATCAGTCTA, for which the switch fluorescence ratio is 0.978.

For TTCGGAAAG, the switch fluorescence ratio was determined as 1.01.

For the sequence ATTCCCGCTC, the switch fluorescence ratio is 1.87.

For CCTCAAGAGA, the switch fluorescence ratio was determined as 3.71.

Regarding CCGGGCTCAT, the switch fluorescence ratio amounted to 1.16.

As to GGACGATTGT, the switch fluorescence ratio was 0.94.

With TGTGCTCCGC, the switch fluorescence ratio turned out to be 1.35.

Consider GAGCAGGTTC, for which the switch fluorescence ratio worked out at 1.14.

In the case of GTTGTAGTAT, the switch fluorescence ratio was 0.99.

For the sequence CGTGATGACT, the switch fluorescence ratio was determined as 0.993.

GTATCACTTA: the switch fluorescence ratio amounted to 1.02.

With TATCAATCTG, the switch fluorescence ratio worked out at 1.03.

Take ATAATCCTCT: the switch fluorescence ratio was 1.02.

As to GTATCGCTTT, the switch fluorescence ratio worked out at 0.987.

For the sequence GCTAATCAAA, the switch fluorescence ratio amounted to 0.984.

Regarding TGGATACTCC, the switch fluorescence ratio came to 1.5.

As for AGCTCGATAT, the switch fluorescence ratio was 1.01.

For AGTGATACGG, the switch fluorescence ratio is 1.07.

As for AGCACCGTTT, the switch fluorescence ratio worked out at 0.986.

As for GGTTATCGAA, the switch fluorescence ratio came to 0.973.

CACATTTCAC: the switch fluorescence ratio was 1.01.

Turning to TACTGAATCG, the switch fluorescence ratio stood at 1.

Regarding TATTATCTAG, the switch fluorescence ratio was 1.1.

AAGATCGACC: the switch fluorescence ratio was determined as 1.01.

With TATTATTTAG, the switch fluorescence ratio was 1.01.

As to GTGCCTATGC, the switch fluorescence ratio came out at 1.21.

Consider GGGTTCAGCG, for which the switch fluorescence ratio worked out at 0.936.

Take ATTTTTCCAT: the switch fluorescence ratio worked out at 1.04.
